Variants at the background level are over-represented here.
B1: TPR 5TU (parent)
chain: GGAUCUUCUCGAUCUAACAAAAAAGACAAAUCUGCCACAAAGCUUGAGAGCAUCUUCGGAUGCAGAGGCGGCAGCCUUCGGUGGCGCGAUAGCGCCAACGUUCUCAACUAUGACACGCAAAACGCGUGCUCCGUUGAAUGGAGUUUAUCAUG

Variants of: B1
Assay: polymerase ribozyme fitness, log enrichment relative to wild type (log ratio); higher = more active; in vitro selection for triplet polymerase activity
Outline: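 Mutant libraries were PCR-built and transcribed for each subunit of a heterodimeric triplet polymerase ribozyme and selected for one round in triplicate at −7 °C, frozen, before gel excision of extended constructs and streptavidin-bead capture. Input and output libraries were Illumina-sequenced, keeping genotypes with ≥10 input reads and ≥1 read per output. Fitness is a logarithmic ratio of genotype to wild-type enrichment, in base 2, using inverse-variance-weighted replicate averages.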

Variant | polymerase ribozyme fitness (log ratio)
C18G A23U A24C C54G C95U G126A U146C | ≤ -4.2
C18G A24U U33C A37C U44A C51G C54U G80C U145A | ≤ -4.2
C18G A24U U55A C69U G74A | -2.16
C18G A29C G50C U56A G83A U101G A122U C125U U127G | ≤ -4.2
C18G A29G A41C G65C C75A C79A C96A | ≤ -4.2
C18G A30U C35A U61G G62U C93U U111G G124A | ≤ -4.2
C18G A30U G42U C43U G59C A91G U102C | ≤ -4.2
C18G A39G G65C G141C | ≤ -4.2
C18G A41C A66C C85A G117C U144A | ≤ -4.2
C18G A41C C54G G62A A107G U134C | ≤ -4.2
C18G A49C G67U G84U A107U | ≤ -4.2
C18G A64C U77C A91G | ≤ -4.2
C18G A73U G83U G92C G124A | ≤ -4.2
C18G A120C | -1.21
C18G C27U U82G G88A | ≤ -4.2
C18G C32G C35U G86U C105G A115C | -4
C18G C36G G68A G92A C105G | ≤ -4.2
C18G C36G U78A C85A | ≤ -4.2
C18G C38A C69G C87U G143U U145A | -3.47
C18G C54G U56A G67U C85A C108G | ≤ -4.2
C18G C57A C93U U135C U145G | -3.11

Variant | polymerase ribozyme fitness (log ratio)
C18G C79G | -3.9
C18G C93U G143U | -3.08
C18G G34U C57U C96U A147U | -2.53
C18G G42A C54U G94A | ≤ -4.2
C18G G46A G74C U77A U135C | ≤ -4.2
C18G G48A A89G C96U A138U | ≤ -4.2
C18G G50A C96U A115G C116G | ≤ -4.2
C18G G62U A64G U139A A142U | ≤ -4.2
C18G G84A A106C U109G A137G A150C | ≤ -4.2
C18G G84U | -1.93
C18G U31A U33G G58A U61G U101A C103G A120C | ≤ -4.2
C18G U44A G92U C99A U101A | ≤ -4.2
C18G U45A A121U | -2.73
C18G U45A C85G G92A C132A | ≤ -4.2
C18G U53G G59A G80U G84A C87G A115G C118G | ≤ -4.2
C18G U53G G94A C96A | ≤ -4.2
C18U A19U A64G A89G A119U U146C | ≤ -4.2
C18U A20C U55A G83C C87G A142C A147C | ≤ -4.2
C18U A20U G25U G34A G92C | ≤ -4.2
C18U A20U G59A G94A U130G A150G | ≤ -4.2
C18U A22C U53G C72U C87U C105U C108G | ≤ -4.2

Variant | polymerase ribozyme fitness (log ratio)
C18U A23C A30U G58A A73U U82C C87A A97C G117A G143U A147C A150U | ≤ -4.2
C18U A23U A91U C95G U104C C118A A147U | ≤ -4.2
C18U A24C U44A G62U G65U C85G | ≤ -4.2
C18U A24G C27U G68C U127A | ≤ -4.2
C18U A24U A28C C35A C38G C79G G84C C116A C123G U144C | ≤ -4.2
C18U A24U A40C U53A U55A A73U G84C U101G A122G G126A | ≤ -4.2
C18U A26U G71C U111G | ≤ -4.2
C18U A29U A40G A41C A52G U109C | ≤ -4.2
C18U A29U G68A C85U | ≤ -4.2
C18U A37U U55A G86A | -3.67
C18U A37U U144A | -1.92
C18U A39C C57U G83A C95U U148C C149A | ≤ -4.2
C18U A40U G143C | -2.98
C18U A47U A64C G92U A115G C132U A137G | ≤ -4.2
C18U A60G U82A G141C | -0.334
C18U A73U A89U A91G A113C | ≤ -4.2
C18U C27A U31G G50U C87A G133C G141A U144G | ≤ -4.2
C18U C27U A28C G74U G100U U144G G152C | ≤ -4.2
C18U C38U A49C C93G C125A G140C U145A | ≤ -4.2
C18U C51U C87A | ≤ -4.2
C18U C51U U53A G83A | -3.04

Variant | polymerase ribozyme fitness (log ratio)
C18U C54A A64G G83C A119U A147C | ≤ -4.2
C18U C57G U61A C87U A89U C116U C118G A122G U139A | ≤ -4.2
C18U C57U G86A | -1.67
C18U C57U G88A C93U | ≤ -4.2
C18U C85U | -0.241
C18U G25U C35A A113C A119C | ≤ -4.2
C18U G42C U55A A64G C79G A89U C93G | ≤ -4.2
C18U G46C U55G A66C U145G | ≤ -4.2
C18U G50A G84A U104G A122U G133U G141C | ≤ -4.2
C18U G50A U53A U78C G86U A115G G117A U134C | ≤ -4.2
C18U G58C G86A U104C | -1.79
C18U G59U A60U U101G U151G | ≤ -4.2
C18U G65C U127G G133U | ≤ -4.2
C18U G68U G80C G84C A121U A147U | ≤ -4.2
C18U G83A G112U | ≤ -4.2
C18U U53A U56A G62A C63U A89U C93U U102C | ≤ -4.2
C18U U53G G92U A115G C149G | ≤ -4.2
C18U U55A C57G A66U U82G G94C A113U | ≤ -4.2
C18U U56A G86C A138U | ≤ -4.2
C18U U56G G59A C93A A137G A147G | ≤ -4.2
